# In PubChem BioAssay AID686979 (National Center for Advancing Translational Sciences (NCATS), 2013):
# Hit rate of the full screen: of about 420,000 compounds, about 50,000 (12%) were called active. This list was built around the results that the source calls inconclusive (neither active nor inactive); the mix of calls is not that of the screen. Calls come from the whole dose curve; as a rule, active = well fitted inhibition curve with a large enough effect; inconclusive = small, poorly fitted or top-dose-only effect; inactive = flat fitted curve, though single readings scatter. No potency is given beside an inconclusive call; the fits are too rough.
# Test: qHTS for Inhibitors of human tyrosyl-DNA phosphodiesterase 1 (TDP1): qHTS in cells in presence of CPT; note: nearly all actives have a fitted effect of over 55% in size
# Settings: chicken DT40 Tdp1-/-;hTDP1 cells + 20 nM CPT, ATP luminescence, 48 h; activity change, negative = growth inhibition: at 46.2 µM (top of the series) unless noted
# Outline: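 Chicken DT40 Tdp1-/- cells stably complemented with human TDP1 were seeded at 400 cells/well in medium containing 20 nM camptothecin, exposed to pin-transferred compounds, and grown at 37 °C for at least 48 hr. Viability was read as ATP luminescence.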
# % is set by controls: 0 for no effect and ±100 for the full control effect; potency is the fitted concentration of half-maximal effect; tags give direction and shape of the fitted curve.
Compound,Potency,"activity change, negative = growth inhibition"
CCOC(=O)c1cc(-c2ccc(F)cc2)n(CCC(=O)NCc2ccc(C)cc2)c1C,"inconclusive [inhibitor, single point]",–
CC1Cc2ccccc2N1S(=O)(=O)c1cccc(C(=O)OCC(=O)NCc2ccco2)c1 (stereo not given),–,inactive: -4.27%
COc1cc(NC(=O)c2cccc(C)c2)c(OC)cc1NC(=O)CN1CCOCC1,"inconclusive [inhibitor, single point]",–
CCN1CCN(C(=O)C2CCN(S(=O)(=O)c3ccc(Br)cc3)CC2)CC1,–,inactive: 1.82%
CCN(c1ccccc1)S(=O)(=O)c1cccc(C(=O)NCC(c2ccc(F)cc2)N2CCOCC2)c1 (stereo not given),active: 23.1 µM,–
OCCN(Cc1ccccc1)Cc1ccc(C(F)(F)F)cc1,"inconclusive [inhibitor, partial curve]",–
CC(C)c1nc(SCC(=O)Nc2nc3c(s2)CCCC3)c2ccccc2n1,active: 18.4 µM,–
COc1ccc(-c2csc(NC(=O)CSCC(=O)Nc3cc(C)on3)n2)c(OC)c1,active: 29.1 µM,–
CCC(CC)C(=O)N(C)c1c(C)nc2c(OCCC3CCCCC3)cccn12,active: 7.31 µM,–
CCOC(=O)c1cccc(NC(=O)/C=C/c2ccc([N+](=O)[O-])cc2)c1,active: 14.6 µM,–
CCN(CC)c1ccc(NC(=O)CN2CCN(c3nc(C)cc(C)n3)CC2)cc1,"inconclusive [inhibitor, single point]",–
COc1ccc(Br)cc1CC1C(=O)Nc2ccccc21 (stereo not given),active: 8.2 µM,–
CC1CC1C(=O)Nc1nc(-c2cccs2)c(-c2cccs2)s1 (stereo not given),"inconclusive [inhibitor, single point]",–
CCCCCCCCCCCCCCCC(=O)OCC(COP(=O)(O)O)OC(=O)CCCCCCCCCCCCCCC (stereo not given),–,inactive: 3.16% [at 4.12 µM]
C=CCn1c(-c2ccccc2)nc(=S)c2c1CCCC2,"inconclusive [inhibitor, single point]",–
N#Cc1cnc2sc3ccccc3n2c1=N,–,inactive: -11%
CN(C(=O)c1ccc(NC(=O)Cc2cccc(NC(=O)C3CCCN(C(=O)C4CC4)C3)c2)cc1)C1CCCC1 (stereo not given),"inconclusive [inhibitor, single point]",–
CN1CCN(C(=S)Nc2cccc(Cl)c2)CC1,–,inactive: -4.36%
COc1ccccc1/C=N/Nc1cc(C)nc2ccc(C)cc12,"inconclusive [inhibitor, single point]",–
COc1ccccc1Nc1nc(-c2cccc([N+](=O)[O-])c2)nc2ccccc12,active: 23.1 µM,–
O=C(CN(Cc1ccccc1Cl)C(=O)Cn1nnc(-c2cccs2)n1)NCC1CCCO1 (stereo not given),–,inactive: -25.5%
O=C(CCNC(=O)c1ccc(Br)cc1)Nc1ccccc1N1CCCCC1,"inconclusive [inhibitor, single point]",–

Compound,Potency,"activity change, negative = growth inhibition"
CCN(CC)S(=O)(=O)c1cccc(C(=O)OCC(=O)C23CC4CC(CC(C4)C2)C3)c1,"inconclusive [inhibitor, partial curve, poor fit]",–
Cc1[nH]n(-c2ccccc2)c(=O)c1N=Nc1cccc(C(=O)O)c1,–,inactive: 29.9%
COc1ccc(Cn2c(C)nc3ccc([N+](=O)[O-])cc3c2=O)cc1,"inconclusive [inhibitor, single point]",–
COc1ccc(-c2noc(C3CCCN(C(=O)Nc4ccccc4F)C3)n2)cc1 (stereo not given),"inconclusive [inhibitor, single point]",–
Cc1ccc2c(c1)sc1nc(=O)n(-c3cccc(Cl)c3)c(=O)n12,"inconclusive [inhibitor, partial curve]",inconclusive: -33.6% [inhibitor]
COc1ccc(CCN2CC(C(=O)NCCc3ccc(C(F)(F)F)cc3)CCC2=O)cc1 (stereo not given),"inconclusive [inhibitor, single point]",–
COc1ccc(C(=O)c2coc3ccc(O)c(CN4CCCC4)c23)cc1,"inconclusive [inhibitor, partial curve]",–
Cc1ccc(NC(=O)CN2CCN(C3CCCCC3)C(=O)C2=O)cc1C,–,inconclusive: -30.6% [inhibitor]
COC(=O)c1ccc(CSc2nc3c(c(=O)n2-c2ccccc2)SCC3)o1,"inconclusive [inhibitor, single point]",–
CCCN1C(C(=O)c2ccccc2)=C(OC(=O)C(C)(C)C)c2ccccc2S1(=O)=O,active: 4.11 µM,–
Cc1ccc(S(=O)(=O)N(C)c2ccc(C(=O)N3CCN(Cc4ccc5c(c4)OCO5)CC3)cc2)cc1,"inconclusive [inhibitor, partial curve, poor fit]",–
CCNC(=S)N/N=C/c1ccc(OCC(=O)Nc2ccc(OC)cc2)c(OC)c1,"inconclusive [inhibitor, single point]",–
O=S1(=O)[C@H]2C[C@H](CO)O[C@@]2(CO)CN1Cc1ccc(-c2cccc(Cl)c2)cc1,active: 20.6 µM,–
Cc1ccc(-n2c(=O)[nH]c3sc4c(c3c2=O)CCNC4)cc1C,"inconclusive [inhibitor, single point]",–
Cc1ccc(NC(c2cccc(Cl)c2)c2nnc(-c3ccccc3)o2)cc1F (stereo not given),"inconclusive [inhibitor, single point]",–
CCSc1nnc(Cn2c(=O)sc3ccccc32)n1C,active: 13 µM,–
C[C@H]1COC(=O)[C@@H](Cc2ccc(F)cc2)C/C=C\C[C@H](CC(=O)N(CCO)Cc2ccccc2)C(=O)N1,active: 20.6 µM,–
N#Cc1c(N)n(CCc2ccc(F)cc2)c2nc3ccccc3nc12,"inconclusive [inhibitor, single point]",–
Cc1onc(-c2c(Cl)cccc2Cl)c1C(=O)NCC1CCCO1 (stereo not given),–,inconclusive: 5.01% [inhibitor]
CCOC(=O)C1CCN(C(=O)Cn2nc(CC)n3c(cc4occc43)c2=O)CC1,"inconclusive [inhibitor, single point]",–
COc1ccc(C(=O)N2CCC(C(=O)Nc3ccccc3OC)CC2)cc1,–,inactive: -23.2%
Cc1cccc(-n2c(SCc3ccc([N+](=O)[O-])cc3)nnc2-c2c[nH]c3ccccc23)c1,"inconclusive [inhibitor, single point]",–
